# Some of the results follow.
# B1: PhoQ; a variant is named by its letters at X, in order, P23837 (parent)
# chain: MKKLLRLFFPLSLRVRFLLATAAVVLVLSLAYGMVALIGYSVSFDKTTFRLLRGESNLFYTLAKWENNKLHVELPENIDKQSPTMTLIYDENGQLLWAQRDVPWLMKMIQPDWLKSNGFHEIEADVNDTSLLLSGDHSIQQQLQEVREDDDDAEMTHSVAVNVYPATSRMPKLTIVVVDTIPVELKSSYMVWSWFIYVLSANLLLVIPLLWVAAWWSLRPIEALAKEVRELEEHNRELLNPATTRELTSLVRNLNRLLKSERERYDKYRTTLTDLTHSLKTPLXXLQXXLRSLRSEKMSVSDAEPVMLEQISRISQQIGYYLHRASMRGGTLLSRELHPVAPLLDNLTSALNKVYQRKGVNISLDISPEISFVGEQNDFVEVMGNVLDNACKYCLEFVEISARQTDEHLYIVVEDDGPGIPLSKREVIFDRGQRVDTLRPGQGVGLAVAREITEQYEGKIVAGESMLGGARMEVIFGRQHSAPKDE
# Variants of: B1
# Assay: enrichment ratio after two sorts for PhoP signalling (ratio (wild type AVST 3.29)); higher = more functional
# Conditions: with PhoP (E. coli)
row,Variant,enrichment ratio
1,IGPW,≤ 0.25
2,NEVH,≤ 0.25
3,PFCP,≤ 0.25
4,SIIW,≤ 0.25
5,PCCQ,≤ 0.25
6,KHLR,≤ 0.25
7,LTIY,≤ 0.25
8,FGAQ,≤ 0.25
9,TWTP,≤ 0.25
10,MFFW,≤ 0.25
11,AHWQ,≤ 0.25
12,FTKK,≤ 0.25
13,RYTN,≤ 0.25
14,LAIE,≤ 0.25
15,EVLH,≤ 0.25
16,FQSM,≤ 0.25
17,PRTP,≤ 0.25
18,SLRA,≤ 0.25
19,LEDY,≤ 0.25
20,QLYD,≤ 0.25
21,PQVY,≤ 0.25

row,Variant,enrichment ratio
1,KTTE,≤ 0.25
2,KQTF,≤ 0.25
3,TRDV,≤ 0.25
4,GVGV,≤ 0.25
5,EHFD,≤ 0.25
6,NEIY,≤ 0.25
7,NVTW,≤ 0.25
8,TCRY,≤ 0.25
9,DWLD,≤ 0.25
10,RNTL,≤ 0.25
11,RCDM,≤ 0.25
12,LLYS,≤ 0.25
13,QMKP,≤ 0.25
14,IPWF,≤ 0.25
15,ILTL,≤ 0.25
16,IEDA,≤ 0.25
17,ALIE,≤ 0.25
18,YWSC,≤ 0.25
19,QLLL,≤ 0.25
20,FSRI,≤ 0.25
21,PPDV,1.7

row,Variant,enrichment ratio
1,RDHL,≤ 0.25
2,YGNR,≤ 0.25
3,WKCS,≤ 0.25
4,TATY,6.28
5,LSSN,≤ 0.25
6,DIVY,≤ 0.25
7,DAPL,≤ 0.25
8,VIWV,≤ 0.25
9,YWQI,≤ 0.25
10,SWFR,≤ 0.25
11,FRMG,≤ 0.25
12,GLGD,≤ 0.25
13,SGHM,4.1
14,HALC,1.03
15,GNYQ,≤ 0.25
16,HFPV,≤ 0.25
17,PAFC,≤ 0.25
18,QLGQ,≤ 0.25
19,NSRG,≤ 0.25
20,NNLC,≤ 0.25
21,NYAR,≤ 0.25

row,Variant,enrichment ratio
1,VPCN,≤ 0.25
2,RWTD,≤ 0.25
3,HSAP,≤ 0.25
4,RVRV,≤ 0.25
5,IQLA,≤ 0.25
6,TLIQ,≤ 0.25
7,NFNW,≤ 0.25
8,RQWL,≤ 0.25
9,DLHK,≤ 0.25
10,VKTY,≤ 0.25
11,WKGV,≤ 0.25
12,EVRN,≤ 0.25
13,SHNP,≤ 0.25
14,NPVR,≤ 0.25
15,YQRV,≤ 0.25
16,DHQN,≤ 0.25
17,WNAS,≤ 0.25
18,VHED,≤ 0.25
19,PRDY,≤ 0.25
20,TSLC,18.4
21,QKRD,≤ 0.25

# From a collection of fitness landscapes (doi:10.1126/science.1257360)
